# Reference: PubChem BioAssay AID881 (National Center for Advancing Translational Sciences (NCATS), 2007)
# Hit rate of the full screen: of about 110,000 compounds, about 610 (0.55%) were called active. Inconclusive means that the source gave no clear call. Such entries were picked first, then a sample of the others. Calls follow the shape of the dose curve; as a rule, active = well fitted inhibition curve with a large enough effect; inconclusive = small, poorly fitted or top-dose-only effect; inactive = no such curve, though single readings can be large or run the other way. Potencies beside an inconclusive call are fits to weak or partial responses and may not hold up.
# Molecular target: Polyunsaturated fatty acid lipoxygenase ALOX15B (Homo sapiens) (UniProt O15296)
# Experiment: qHTS Assay for Inhibitors of 15-hLO-2 (15-human lipoxygenase 2); also: nearly all actives have a fitted effect of over 60% in size
# Conditions: purified 15hLO-2, xylenol orange hydroperoxide absorbance; activity change, negative = inhibition: at 57.1 µM (top of the series) unless noted
# Summary of the method: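 Read-out: hydroperoxide product oxidises ferrous iron, measured as xylenol orange complex via the 573-to-405 nm absorbance ratio after 30 min. Reaction: 50 nM enzyme, 15 min compound preincubation, 45 uM arachidonic acid, 90 min RT, Hepes pH 7.5 with Triton X-100.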
# % is scaled to controls: 0 for no effect and ±100 for the full control effect; potency is read from the fitted curve at half-maximal effect; tags tell the direction and shape of the fitted curve.
# UniProt O15296, sequence (O15296 whole entry, looked up): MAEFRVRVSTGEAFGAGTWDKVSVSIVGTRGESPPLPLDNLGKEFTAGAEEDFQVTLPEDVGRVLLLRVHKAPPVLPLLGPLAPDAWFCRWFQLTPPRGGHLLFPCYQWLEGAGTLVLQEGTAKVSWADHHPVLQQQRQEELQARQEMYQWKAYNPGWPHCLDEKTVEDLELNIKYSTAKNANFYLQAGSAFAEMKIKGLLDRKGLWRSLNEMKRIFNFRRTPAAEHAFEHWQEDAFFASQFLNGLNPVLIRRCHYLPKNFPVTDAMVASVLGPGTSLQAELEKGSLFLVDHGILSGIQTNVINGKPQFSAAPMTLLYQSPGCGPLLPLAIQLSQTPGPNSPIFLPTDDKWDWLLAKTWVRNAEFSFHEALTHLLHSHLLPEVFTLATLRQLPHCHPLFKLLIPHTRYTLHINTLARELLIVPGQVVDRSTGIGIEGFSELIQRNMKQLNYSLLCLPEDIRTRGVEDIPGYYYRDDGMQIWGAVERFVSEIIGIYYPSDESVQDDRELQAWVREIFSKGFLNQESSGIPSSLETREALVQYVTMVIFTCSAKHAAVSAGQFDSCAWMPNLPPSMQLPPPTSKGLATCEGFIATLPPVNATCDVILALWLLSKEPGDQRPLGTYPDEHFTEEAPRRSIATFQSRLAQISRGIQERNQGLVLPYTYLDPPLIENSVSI
SMILES,"activity change, negative = inhibition",Potency
Cc1occc1C(=O)NC(C)C(C)(C)C (stereo not given),inactive: -3.2%,–
CCCN1C(=O)/C(=C2\SC(N3CCCCC3)=NC2=O)c2ccccc21,–,"inconclusive: 25.1 µM [inhibitor, single point]"
CC(=O)c1cccc(NC(=O)Nc2cccs2)c1,inactive: -7.91%,–
O=c1[nH]c(SCc2nc3c(cnn3-c3ccccc3)c(=O)[nH]2)nc2ccccc12,–,"inconclusive: 31.6 µM [inhibitor, single point]"
CCOc1ccc(NC(=O)C(C)SC(N)=O)cc1 (stereo not given),–,"inconclusive: 31.6 µM [inhibitor, single point]"
CN(C)c1nc(-c2cccnc2)nc2ccccc12,inactive: 9.42%,–
O=C1CCN(C(=O)Nc2cccc(Cl)c2)N1,–,"inconclusive: 25.1 µM [inhibitor, single point]"
Cc1cc(C)n(-c2nnc(C)c(=O)[nH]2)n1,inactive: -8.51%,–
COC(=O)c1ccc(C(NC(=O)OCc2ccccc2)/C(I)=C/[C@@H](C)C(=O)NCc2ccc(C)o2)cc1 (stereo not given in full),–,"inconclusive: 12.6 µM [inhibitor, partial curve]"
Cc1cc(/C=C2\SC(=Nc3ccc(F)cc3)NC2=O)c(C)n1-c1ccc(S(N)(=O)=O)cc1,–,"inconclusive: 15.8 µM [inhibitor, partial curve]"
CCOC(=O)CSc1nnc(CSc2nc3sc4c(c3c(=O)[nH]2)CCCC4)n1-c1ccccc1,–,"inconclusive: 25.1 µM [inhibitor, single point]"
Cc1ccc(Oc2coc3cc(OC(=O)c4cccs4)ccc3c2=O)cc1,–,"inconclusive: 0.158 µM [inhibitor, full curve, poor fit]"
COc1ccc(Cc2nnc(N)s2)cc1,inactive: -4.49%,–
Nc1ccc(N2CCN(C(=O)c3cccs3)CC2)cc1,–,"inconclusive: 15.8 µM [inhibitor, partial curve]"
Cc1ccc(-c2noc(CCC(=O)NCc3ccco3)n2)cc1,inactive: -19.3%,–
COc1ncc2nc(C)c(=O)n(C3CC3)c2n1,inactive: -3.9%,–
CCc1ccc(O)c(N=Cc2ccccc2O)c1,–,active: 15.8 µM
Cc1ccc(-c2nn(CC(=O)NCc3cc(-c4nn(C)c(=O)c5ccccc45)ccc3C)c(=O)c3ccccc23)cc1,–,"inconclusive: 31.6 µM [inhibitor, single point]"
Cc1cc(NC(=O)CN2CCN(c3ccc(O)cc3)CC2)no1,–,"inconclusive: 1.26 µM [inhibitor, full curve]"
Cc1nc(C(=O)Nc2ccccc2Cl)cc2c1[nH]c1ccccc12,–,"inconclusive: 25.1 µM [inhibitor, single point]"
COC(=O)[C@@H]1CCCN1C(=O)[C@H]1C[C@@H]1[C@H](NC(=O)OCc1ccccc1)c1ccccc1,inactive: 0.604%,–
N#CC1=C(N)C2=C(N3CCCCC3)CCCC2C1(C#N)C#N (stereo not given),–,"inconclusive: 39.8 µM [inhibitor, single point]"
COc1ccc2c(c1)OC/C(=C/c1ccc(O)c(O)c1)C2=O,–,"inconclusive: 31.6 µM [inhibitor, single point]"

SMILES,"activity change, negative = inhibition",Potency
COCCNc1ncnc2ccc(-c3ccccc3C)cc12,–,"inconclusive: 39.8 µM [inhibitor, single point]"
O=C(NCc1ccco1)c1cccnc1-c1nc2ccccc2s1,–,"inconclusive: 7.94 µM [inhibitor, single point]"
CCC(=O)Nc1ccc(C(=O)CSc2nnc(-c3ccc(O)cc3)n2CC2CCCO2)cc1OC (stereo not given),–,"inconclusive: 0.316 µM [inhibitor, full curve, poor fit]"
Cc1cc(C(=O)OCC(=O)c2ccc3c(c2)NC(=O)CO3)c2ccccc2n1,–,"inconclusive: 20 µM [inhibitor, single point]"
COc1cccc(-c2cc(=O)c3cc(O)ccc3o2)c1,inactive: -3.5%,–
O=C(N/N=C/c1ccc(O)cc1)c1ccc(COc2cc(Cl)ccc2Cl)o1,–,"inconclusive: 25.1 µM [inhibitor, single point]"
COc1ccc(NC(=O)CSc2ccc3c4c(cccc24)C(=O)c2ccccc2-3)cc1,–,active: 15.8 µM
O=C(c1ccccc1)N1CCN(C2CC3CCC2C3)CC1 (stereo not given),–,"inconclusive: 20 µM [inhibitor, single point]"
CC(=O)c1c(N)[nH]c(-c2ccccc2)nc1=S,–,"inconclusive: 25.1 µM [inhibitor, single point]"
CSc1nsc(/C=C/Nc2cccc(Cl)c2)c1C#N,–,"inconclusive: 31.6 µM [inhibitor, single point]"
O=C1CCCN1CCC1CCN(C2CC(=O)N(c3ccc(F)cc3)C2=O)CC1 (stereo not given),–,"inconclusive: 39.8 µM [inhibitor, single point]"
C=CCn1c(SCC(=O)Nc2c(C)n(C)n(-c3ccccc3)c2=O)nc2sc(C)c(-c3ccccc3)c2c1=O,inactive: -10.8%,–
CCNc1ncc2nc(CCc3ccccc3)c(=O)n(C[C@H]3CCCO3)c2n1,inactive: -4.19%,–
Cc1ccc(-c2cc(-c3ccc(F)cc3)nc(N)c2C#N)o1,–,"inconclusive: 7.94 µM [inhibitor, partial curve]"
CN(C)c1ccc(/C=C2\NC(=S)N(Cc3ccccc3)C2=O)cc1,–,"inconclusive: 15.8 µM [inhibitor, partial curve]"
CCOc1cc(NC(=S)Nc2cccc(OC)c2)c(OCC)cc1NC(=O)c1ccc(C)cc1,–,"inconclusive: 20 µM [inhibitor, partial curve]"
Nc1cc(CN2C(=O)c3ccccc3C2=O)cc(Cl)c1O,–,"inconclusive: 15.8 µM [inhibitor, partial curve]"
Cc1nn(-c2ccccc2)c(Cl)c1/C=C1\SC(=S)NC1=O,–,"inconclusive: 12.6 µM [inhibitor, partial curve]"
COc1cccc(-c2oc3ccccc3c(=O)c2O)c1,–,"inconclusive: 10 µM [inhibitor, full curve]"
Cc1ccc(C2CC(=O)Oc3cc(C)c(Cl)cc32)cc1 (stereo not given),inactive: -3.13% [at 0.0915 µM],–
COc1ccc(OC)c(N=Cc2c(O)[nH]c3ccccc23)c1,–,"inconclusive: 20 µM [inhibitor, single point]"
Cn1c(=O)c(C(=O)COC(=O)c2cc(-c3ccco3)nc3ccccc23)c(N)n(Cc2ccccc2)c1=O,inactive: -18.4%,–
